{"source": "the supplement of paper PMC8728848", "binders": {"B1": {"name": "exo-alpha-sialidase (Propionibacterium acnes), Q6A7G1 (protein)", "chain": "GSHMSGRAPAPVAATTQPKLVTGDITSTDQSGTNLFFGKKIVRNARGAIMKVDRTWPAAVPAPLPDVRADSSTRMLLGPVVDLAVNEHPEGVFYRIPALATASNGDLLASYDLRPGSAGDAPNPNSIVQRRSRDNGRTWGPQTVIHAGTPGRRKVGYSDPSYLVDPATGRILNFHVKSYDRGFATSEVGTDPDDRHVLHAEVSTSTDNGHTWTHRDITREITSDPTTRTRFVASGQGIALLHGPHAGRLIAQMTVRNSVGQQAQSIYSDDHGITWHAGNPVGRMMDENKVVELSDGTLMLNSRDAARSGRRKVAYSQDGGLTWGPVKLVDDLIDPTNNAQIIRAYPNARAGSAKARILLFTNARNATERVNGTLSVSCDDGRTWVSHQTYMPGEVGYTTAAVQSDGALGVLWERDGIRYSTIPMGWLNSVCPLAPSGRPTSGKPTSGTSLPPTAT"}}, "test_in_all_cases": "glycan array binding signal (z-score within array); higher = stronger binding", "settings_in_all_cases": "glycan notation: IUPAC condensed, linker removed", "key": {"[1]": {"molecular_target": "Neu5Ac(a2-3)Gal(b1-4)GlcNAc(b1-3)Gal(b1-4)GlcNAc(b1-3)Gal(b1-4)GlcNAc", "how_it_was_run": "(§1)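 Glycan array data came from 3228 arrays in the Consortium for Functional Glycomics database, and only arrays with an available protein sequence were kept. Glycan names were put into IUPAC-condensed notation, and columns mapping to the same glycan were averaged. The binding signal is a within-array Z-score, averaged across arrays of one protein sequence run at different concentrations or buffers and across linkers. A negative Z-score can be read as non-binding.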"}, "[2]": {"molecular_target": "Neu5Ac(a2-3)Gal(b1-4)GlcNAc(b1-3)Gal(b1-4)[Fuc(a1-3)]GlcNAc", "how_it_was_run": "as §1"}, "[3]": {"molecular_target": "Neu5Ac(a2-3)Gal(b1-4)GlcNAc(b1-3)GalNAc", "how_it_was_run": "as §1"}, "[4]": {"molecular_target": "Neu5Ac(a2-3)Gal(b1-4)GlcNAc(b1-6)[Gal(b1-3)]GalNAc", "how_it_was_run": "as §1"}, "[5]": {"molecular_target": "Neu5Ac(a2-3)Gal(b1-4)GlcNAc(b1-6)[Neu5Ac(a2-3)Gal(b1-3)]GalNAc", "how_it_was_run": "as §1"}, "[6]": {"molecular_target": "Neu5Ac(a2-3)Gal(b1-4)GlcNAc6S", "how_it_was_run": "as §1"}, "[7]": {"molecular_target": "Neu5Ac(a2-3)Gal(b1-4)[Fuc(a1-3)]GlcNAc", "how_it_was_run": "as §1"}, "[8]": {"molecular_target": "Neu5Ac(a2-3)Gal(b1-4)[Fuc(a1-3)]GlcNAc(b1-3)Gal", "how_it_was_run": "as §1"}, "[9]": {"molecular_target": "Neu5Ac(a2-3)Gal(b1-4)[Fuc(a1-3)]GlcNAc(b1-3)Gal(b1-4)GlcNAc", "how_it_was_run": "as §1"}, "[10]": {"molecular_target": "Neu5Ac(a2-3)Gal(b1-4)[Fuc(a1-3)]GlcNAc(b1-3)Gal(b1-4)[Fuc(a1-3)]GlcNAc(b1-3)Gal(b1-4)[Fuc(a1-3)]GlcNAc", "how_it_was_run": "as §1"}, "[11]": {"molecular_target": "Neu5Ac(a2-3)Gal(b1-4)[Fuc(a1-3)]GlcNAc(b1-3)GalNAc", "how_it_was_run": "as §1"}, "[12]": {"molecular_target": "Neu5Ac(a2-3)Gal(b1-4)[Fuc(a1-3)]GlcNAc(b1-6)[Gal(b1-3)]GalNAc", "how_it_was_run": "as §1"}, "[13]": {"molecular_target": "Neu5Ac(a2-3)Gal(b1-4)[Fuc(a1-3)]GlcNAc(b1-6)[Neu5Ac(a2-3)Gal(b1-3)]GalNAc", "how_it_was_run": "as §1"}, "[14]": {"molecular_target": "Neu5Ac(a2-3)Gal(b1-4)[Fuc(a1-3)]GlcNAc6S", "how_it_was_run": "as §1"}, "[15]": {"molecular_target": "Neu5Ac(a2-3)Gal6S(b1-4)GlcNAc", "how_it_was_run": "as §1"}, "[16]": {"molecular_target": "Neu5Ac(a2-3)Gal6S(b1-4)[Fuc(a1-3)]GlcNAc", "how_it_was_run": "as §1"}, "[17]": {"molecular_target": "Neu5Ac(a2-3)GalNAc", "how_it_was_run": "as §1"}, "[18]": {"molecular_target": "Neu5Ac(a2-3)GalNAc(b1-4)GlcNAc", "how_it_was_run": "as §1"}, "[19]": {"molecular_target": "Neu5Ac(a2-3)[GalNAc(b1-4)]Gal(b1-4)Glc", "how_it_was_run": "as §1"}, "[20]": {"molecular_target": "Neu5Ac(a2-3)[GalNAc(b1-4)]Gal(b1-4)GlcNAc", "how_it_was_run": "as §1"}, "[21]": {"molecular_target": "Neu5Ac(a2-3)[GalNAc(b1-4)]Gal(b1-4)GlcNAc(b1-3)GalNAc", "how_it_was_run": "as §1"}, "[22]": {"molecular_target": "Neu5Ac(a2-3)[Neu5Ac(a2-6)]GalNAc", "how_it_was_run": "as §1"}, "[23]": {"molecular_target": "Neu5Ac(a2-6)Gal", "how_it_was_run": "as §1"}, "[24]": {"molecular_target": "Neu5Ac(a2-6)Gal(b1-4)Glc", "how_it_was_run": "as §1"}, "[25]": {"molecular_target": "Neu5Ac(a2-6)Gal(b1-4)GlcNAc", "how_it_was_run": "as §1"}, "[26]": {"molecular_target": "Neu5Ac(a2-6)Gal(b1-4)GlcNAc(b1-2)Man(a1-3)Man(b1-4)GlcNAc(b1-4)GlcNAc", "how_it_was_run": "as §1"}, "[27]": {"molecular_target": "Neu5Ac(a2-6)Gal(b1-4)GlcNAc(b1-2)Man(a1-3)[Gal(b1-4)GlcNAc(b1-2)Man(a1-6)]Man(b1-4)GlcNAc(b1-4)GlcNAc", "how_it_was_run": "as §1"}, "[28]": {"molecular_target": "Neu5Ac(a2-6)Gal(b1-4)GlcNAc(b1-2)Man(a1-3)[GlcNAc(b1-2)Man(a1-6)]Man(b1-4)GlcNAc(b1-4)GlcNAc", "how_it_was_run": "as §1"}, "[29]": {"molecular_target": "Neu5Ac(a2-6)Gal(b1-4)GlcNAc(b1-2)Man(a1-3)[GlcNAc(b1-2)Man(b1-4)GlcNAc(b1-2)Man(a1-6)]Man(b1-4)GlcNAc(b1-4)GlcNAc", "how_it_was_run": "as §1"}, "[30]": {"molecular_target": "Neu5Ac(a2-6)Gal(b1-4)GlcNAc(b1-2)Man(a1-3)[Man(a1-6)]Man(b1-4)GlcNAc(b1-4)GlcNAc", "how_it_was_run": "as §1"}, "[31]": {"molecular_target": "Neu5Ac(a2-6)Gal(b1-4)GlcNAc(b1-2)Man(a1-3)[Neu5Ac(a2-6)Gal(b1-4)GlcNAc(b1-2)Man(a1-6)]Man(b1-4)GlcNAc(b1-4)GlcNAc", "how_it_was_run": "as §1"}, "[32]": {"molecular_target": "Neu5Ac(a2-6)Gal(b1-4)GlcNAc(b1-2)Man(a1-6)Man(b1-4)GlcNAc(b1-4)GlcNAc", "how_it_was_run": "as §1"}, "[33]": {"molecular_target": "Neu5Ac(a2-6)Gal(b1-4)GlcNAc(b1-2)Man(a1-6)[Gal(b1-4)GlcNAc(b1-2)Man(a1-3)]Man(b1-4)GlcNAc(b1-4)GlcNAc", "how_it_was_run": "as §1"}, "[34]": {"molecular_target": "Neu5Ac(a2-6)Gal(b1-4)GlcNAc(b1-2)Man(a1-6)[GlcNAc(b1-2)Man(a1-3)]Man(b1-4)GlcNAc(b1-4)GlcNAc", "how_it_was_run": "as §1"}, "[35]": {"molecular_target": "Neu5Ac(a2-6)Gal(b1-4)GlcNAc(b1-2)Man(a1-6)[Man(a1-3)]Man(b1-4)GlcNAc(b1-4)GlcNAc", "how_it_was_run": "as §1"}, "[36]": {"molecular_target": "Neu5Ac(a2-6)Gal(b1-4)GlcNAc(b1-3)Gal(b1-3)GlcNAc", "how_it_was_run": "as §1"}, "[37]": {"molecular_target": "Neu5Ac(a2-6)Gal(b1-4)GlcNAc(b1-3)Gal(b1-4)GlcNAc", "how_it_was_run": "as §1"}, "[38]": {"molecular_target": "Neu5Ac(a2-6)Gal(b1-4)GlcNAc(b1-3)Gal(b1-4)GlcNAc(b1-3)Gal(b1-4)GlcNAc", "how_it_was_run": "as §1"}, "[39]": {"molecular_target": "Neu5Ac(a2-6)Gal(b1-4)GlcNAc(b1-3)Gal(b1-4)[Fuc(a1-3)]GlcNAc(b1-3)Gal(b1-4)[Fuc(a1-3)]GlcNAc", "how_it_was_run": "as §1"}, "[40]": {"molecular_target": "Neu5Ac(a2-6)Gal(b1-4)GlcNAc(b1-3)GalNAc", "how_it_was_run": "as §1"}, "[41]": {"molecular_target": "Neu5Ac(a2-6)Gal(b1-4)GlcNAc6S", "how_it_was_run": "as §1"}, "[42]": {"molecular_target": "Neu5Ac(a2-6)GalNAc", "how_it_was_run": "as §1"}, "[43]": {"molecular_target": "Neu5Ac(a2-6)GalNAc(b1-4)GlcNAc", "how_it_was_run": "as §1"}, "[44]": {"molecular_target": "Neu5Ac(a2-6)GlcNAc(b1-4)GlcNAc", "how_it_was_run": "as §1"}, "[45]": {"molecular_target": "Neu5Ac(a2-6)GlcNAc(b1-4)GlcNAc(b1-4)GlcNAc", "how_it_was_run": "as §1"}}, "note": "This is one part of the list.", "data": [{"binder": "B1", "values": [{"measurement": "glycan array binding signal (z-score)", "setting": "[1]", "value": 0.411}, {"measurement": "glycan array binding signal (z-score)", "setting": "[2]", "value": 2.02}, {"measurement": "glycan array binding signal (z-score)", "setting": "[3]", "value": 0.249}, {"measurement": "glycan array binding signal (z-score)", "setting": "[4]", "value": 1.11}, {"measurement": "glycan array binding signal (z-score)", "setting": "[5]", "value": 4.39}, {"measurement": "glycan array binding signal (z-score)", "setting": "[6]", "value": 1.29}, {"measurement": "glycan array binding signal (z-score)", "setting": "[7]", "value": 0.028}, {"measurement": "glycan array binding signal (z-score)", "setting": "[8]", "value": -0.222}, {"measurement": "glycan array binding signal (z-score)", "setting": "[9]", "value": -0.131}, {"measurement": "glycan array binding signal (z-score)", "setting": "[10]", "value": -0.26}, {"measurement": "glycan array binding signal (z-score)", "setting": "[11]", "value": 0.236}, {"measurement": "glycan array binding signal (z-score)", "setting": "[12]", "value": 0.107}, {"measurement": "glycan array binding signal (z-score)", "setting": "[13]", "value": 1.81}, {"measurement": "glycan array binding signal (z-score)", "setting": "[14]", "value": -0.305}, {"measurement": "glycan array binding signal (z-score)", "setting": "[15]", "value": -0.069}, {"measurement": "glycan array binding signal (z-score)", "setting": "[16]", "value": 0.257}, {"measurement": "glycan array binding signal (z-score)", "setting": "[17]", "value": 0.845}, {"measurement": "glycan array binding signal (z-score)", "setting": "[18]", "value": 0.672}, {"measurement": "glycan array binding signal (z-score)", "setting": "[19]", "value": -0.307}, {"measurement": "glycan array binding signal (z-score)", "setting": "[20]", "value": -0.316}, {"measurement": "glycan array binding signal (z-score)", "setting": "[21]", "value": -0.347}, {"measurement": "glycan array binding signal (z-score)", "setting": "[22]", "value": 4.53}, {"measurement": "glycan array binding signal (z-score)", "setting": "[23]", "value": 0.711}, {"measurement": "glycan array binding signal (z-score)", "setting": "[24]", "value": 0.665}, {"measurement": "glycan array binding signal (z-score)", "setting": "[25]", "value": 0.458}, {"measurement": "glycan array binding signal (z-score)", "setting": "[26]", "value": -0.02}, {"measurement": "glycan array binding signal (z-score)", "setting": "[27]", "value": 0.072}, {"measurement": "glycan array binding signal (z-score)", "setting": "[28]", "value": -0.014}, {"measurement": "glycan array binding signal (z-score)", "setting": "[29]", "value": 0.422}, {"measurement": "glycan array binding signal (z-score)", "setting": "[30]", "value": -0.118}, {"measurement": "glycan array binding signal (z-score)", "setting": "[31]", "value": 1.24}, {"measurement": "glycan array binding signal (z-score)", "setting": "[32]", "value": 0.064}, {"measurement": "glycan array binding signal (z-score)", "setting": "[33]", "value": -0.184}, {"measurement": "glycan array binding signal (z-score)", "setting": "[34]", "value": -0.006}, {"measurement": "glycan array binding signal (z-score)", "setting": "[35]", "value": -0.137}, {"measurement": "glycan array binding signal (z-score)", "setting": "[36]", "value": 0.035}, {"measurement": "glycan array binding signal (z-score)", "setting": "[37]", "value": 0.359}, {"measurement": "glycan array binding signal (z-score)", "setting": "[38]", "value": 0.285}, {"measurement": "glycan array binding signal (z-score)", "setting": "[39]", "value": -0.203}, {"measurement": "glycan array binding signal (z-score)", "setting": "[40]", "value": 0.27}, {"measurement": "glycan array binding signal (z-score)", "setting": "[41]", "value": 0.62}, {"measurement": "glycan array binding signal (z-score)", "setting": "[42]", "value": -0.072}, {"measurement": "glycan array binding signal (z-score)", "setting": "[43]", "value": -0.149}, {"measurement": "glycan array binding signal (z-score)", "setting": "[44]", "value": 3.52}, {"measurement": "glycan array binding signal (z-score)", "setting": "[45]", "value": 1.31}]}]}
